In all, about 220,000 compounds went through this assay and about 5,700 (2.6%) were called active. The inconclusive results got no clear call from the source; some entries with a clear call stand among them for comparison. The call rests on the fitted dose curve; in most records, active means well fitted inhibition curve with a large enough effect; inconclusive means small, poorly fitted or top-dose-only effect; inactive means no such curve, though single readings can be large or run the other way. Where the call is inconclusive, the potency comes from a doubtful curve fit.
biological target: Lysine-specific demethylase 5B (Homo sapiens) (UniProt Q9UGL1); assay: Primary screen for KDM5B Histone Demethylases FDH-coupled qHTS; details: FDH-coupled NADH fluorescence (FDH is formaldehyde dehydrogenase); series mostly up to 57.7 µM; further: nearly all actives have a fitted effect of over 70% in size
How it was run: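 Here, H3K4me3 peptide (12.5 µM in substrate mix) is demethylated by KDM5BΔAP, 200 nM final, after 10 min compound exposure. Formaldehyde product is coupled through FDH (0.25 U/mL in mix) to NADH fluorescence; 30-min ΔRFU feeds dose-response curves.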
Potency means the concentration at half of the fitted maximal effect; tags describe the fitted curve by direction and shape.

Chain of UniProt Q9UGL1 (Q9UGL1 whole entry, looked up): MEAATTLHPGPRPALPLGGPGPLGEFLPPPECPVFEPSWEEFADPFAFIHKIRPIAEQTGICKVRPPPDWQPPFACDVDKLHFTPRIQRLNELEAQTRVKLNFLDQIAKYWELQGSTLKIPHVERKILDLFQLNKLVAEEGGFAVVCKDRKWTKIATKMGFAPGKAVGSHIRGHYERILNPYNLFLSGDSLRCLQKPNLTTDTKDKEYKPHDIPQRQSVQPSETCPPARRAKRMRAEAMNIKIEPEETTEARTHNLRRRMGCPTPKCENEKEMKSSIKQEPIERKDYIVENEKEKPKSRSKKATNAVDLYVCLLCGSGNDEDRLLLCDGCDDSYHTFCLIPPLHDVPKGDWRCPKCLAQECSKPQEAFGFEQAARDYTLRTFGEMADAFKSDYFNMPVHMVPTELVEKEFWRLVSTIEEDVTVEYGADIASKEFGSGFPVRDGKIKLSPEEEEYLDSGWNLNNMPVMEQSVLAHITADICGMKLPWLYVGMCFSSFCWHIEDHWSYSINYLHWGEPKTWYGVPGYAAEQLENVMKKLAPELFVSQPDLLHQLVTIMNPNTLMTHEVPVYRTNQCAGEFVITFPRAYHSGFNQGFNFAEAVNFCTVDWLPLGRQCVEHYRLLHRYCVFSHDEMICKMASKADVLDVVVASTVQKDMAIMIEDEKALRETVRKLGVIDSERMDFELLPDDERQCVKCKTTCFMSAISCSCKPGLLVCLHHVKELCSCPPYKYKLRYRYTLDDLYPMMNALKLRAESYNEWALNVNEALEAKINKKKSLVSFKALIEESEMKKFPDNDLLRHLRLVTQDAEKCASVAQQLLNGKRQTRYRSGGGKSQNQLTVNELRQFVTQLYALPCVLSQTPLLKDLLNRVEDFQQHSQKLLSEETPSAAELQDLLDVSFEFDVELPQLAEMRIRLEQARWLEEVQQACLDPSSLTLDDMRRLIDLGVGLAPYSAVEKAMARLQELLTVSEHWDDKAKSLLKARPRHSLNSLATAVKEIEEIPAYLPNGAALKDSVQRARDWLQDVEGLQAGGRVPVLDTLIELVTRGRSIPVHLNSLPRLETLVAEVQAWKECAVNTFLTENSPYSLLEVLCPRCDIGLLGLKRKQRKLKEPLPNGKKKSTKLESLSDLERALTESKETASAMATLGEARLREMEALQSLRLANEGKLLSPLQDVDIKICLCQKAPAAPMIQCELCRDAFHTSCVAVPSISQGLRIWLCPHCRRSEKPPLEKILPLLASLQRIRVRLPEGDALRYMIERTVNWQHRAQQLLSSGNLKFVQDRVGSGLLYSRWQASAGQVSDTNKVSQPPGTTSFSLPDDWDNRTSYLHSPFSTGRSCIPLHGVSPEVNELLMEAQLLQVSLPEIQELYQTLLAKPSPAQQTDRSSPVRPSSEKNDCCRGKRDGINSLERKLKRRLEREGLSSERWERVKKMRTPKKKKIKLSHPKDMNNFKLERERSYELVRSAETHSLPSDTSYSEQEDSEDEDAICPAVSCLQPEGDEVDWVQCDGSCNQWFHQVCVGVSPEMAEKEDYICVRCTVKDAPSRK

SMILES | Potency
O=C(NCCc1ccccc1)C1CCN(Cc2cc3ccccc3n2Cc2ccccc2)CC1 | inconclusive: 25.1 µM [inhibitor, single point]
COc1cc(C(=O)OCC(=O)NC2CCC(C)CC2)cc(Cl)c1OC (centres undefined) | inactive
COc1ccc(CNCc2ccc3c(c2)OCO3)cc1Br | inconclusive: 3.55 µM [inhibitor, full curve, poor fit]
COc1ccc(-c2cn3cccnc3n2)cc1NC(=O)Nc1cc(C)ccc1C | inconclusive: 25.1 µM [inhibitor, single point]
O=C(Cn1ncc2c3ccccc3n(Cc3cccc(Cl)c3)c2c1=O)NCCCN1CCCCC1 | inconclusive: 22.4 µM [inhibitor, single point]
C=CCn1c(N)c(C(=O)NCc2ccccc2)c2nc3ccccc3nc21 | inconclusive: 25.1 µM [inhibitor, partial curve, poor fit]
Cc1cccc(CN2CCNc3cnc(-c4ccccc4)cc3C2)c1 | active: 35.5 µM
CCCNC(=O)CCN(CCCOC)C(=O)c1cc(C)oc1C | inconclusive: 39.8 µM [inhibitor, partial curve, poor fit]
CN(Cc1ccccc1)S(=O)(=O)c1ccc(-c2nc(C#N)c(NCc3ccc(F)cc3)o2)cc1 | inactive
Cc1nc2ccccc2nc1CN1C(=O)NC2(CCCCC2)C1=O | inactive
O=C1NC2(CCCN(Cc3ccc(OC(F)(F)F)cc3)C2)COc2ccccc21 (centres undefined) | active: 35.5 µM
O=C1c2cc(N3CCOCC3)nc(-c3cccnc3)c2CN1C1COC1 | active: 31.6 µM
Cc1cc(/C=C2\C(=N)N3N=C(c4ccco4)SC3=NC2=O)c(C)n1Cc1ccccc1 | inconclusive: 22.4 µM [inhibitor, single point]
C=CCN1CCN(C(=O)[C@@H]2Cc3c[nH]c4cccc(c34)[C@H](CC(C)C)N2)CC1 | inconclusive: 31.6 µM [inhibitor, single point]
CCc1ccc(C2C(C(=O)OC(C)C)=C(C)N=C3SCCC(=O)N32)cc1 (centres undefined) | inactive
Cc1ccc(NC(=O)N2CCN(c3cccc(Cl)c3)CC2)cc1C | inconclusive: 31.6 µM [inhibitor, single point]
Cc1nc(CN2CCN(c3ncc(F)c(N(C)C)n3)CC2)cs1 | inconclusive: 28.2 µM [inhibitor, partial curve, poor fit]
O=C(O)c1cccc(-c2n[nH]c3c2CC(=O)N(CC2CCOCC2)C3)c1 | inconclusive: 39.8 µM [inhibitor, partial curve, poor fit]
COc1ccc(C(=O)COC(=O)CCc2ccc(-c3ccccc3)o2)cc1 | inconclusive: 10 µM [inhibitor, partial curve, poor fit]
